{"source": "the RNAGym collection of RNA variant scans (doi:10.7554/elife.90254)", "parents": {"B1": {"name": "LINE1-mini (parent)", "chain": "GGCAGAGCUCAACACAGCGUGGCAAAGUGGCUGUGGCUAGACUGCC"}}, "note": "Read counts are not given, so values of variants with three or more changes are uncertain.", "data": [{"variants_of": "B1", "experiment": "self-cleavage, relative activity (ratio to wild type); higher = more cleavage; in vitro, sequencing; the parent is a self-cleaving ribozyme", "values": [{"variant": "UGCCGAGCUCAACACAGCGUGGCAAAGUGGCAGUGGCUAGACUGCC", "note": "[G1U A4C U32A]", "self-cleavage": 0.03}, {"variant": "CGCAGAGCUCAACACAGCGUGGCAAAGUGGCUGUUGCUUGAGUGAC", "note": "[G1C G35U A39U C42G C45A]", "self-cleavage": 0.02}, {"variant": "CGCAGAGCUCAACACAGCGUGGCAAAGUUGCUGUGGCAAGACUGCC", "note": "[G1C G29U U38A]", "self-cleavage": 0.07}, {"variant": "CGCAGAGCUCAACACAGCGUGGCAAAGGUGCUGUGGCUAGAGUGCC", "note": "[G1C U28G G29U C42G]", "self-cleavage": 0.01}, {"variant": "CGCAGAGCUCAACACAGCGUGUCAAAGUGGCUGUGGUUAUACUGCC", "note": "[G1C G22U C37U G40U]", "self-cleavage": 0.08}, {"variant": "UGCAGCGCUCAACAUAGCAUGGCAAAGUGGCUGUGGCAAGACUGCC", "note": "[G1U A6C C15U G19A U38A]", "self-cleavage": 0.27}, {"variant": "UGCUGAACUCAACACAGCGUGGCAUAGAGGCUGUGUCUAGACUGCC", "note": "[G1U A4U G7A A25U U28A G36U]", "self-cleavage": 0.12}, {"variant": "CGCAGAGCUCAACACAGCGUGGCAAAGUGGCUGUGUCUAGACUGAC", "note": "[G1C G36U C45A]", "self-cleavage": 0}, {"variant": "UGCCCAGCUCAACACAGCAUGGCAAAGUGGCUGUGGCUAGCCUGCC", "note": "[G1U A4C G5C G19A A41C]", "self-cleavage": 0.04}, {"variant": "CGCAUAGCUCAACACAGCGUGGCGAAGUGGCUGUGGCUAGACUGCC", "note": "[G1C G5U A24G]", "self-cleavage": 0.01}, {"variant": "CGCAGAGCUCAACACAGCGUGGCAAAGCGGCUGUAGCUAGACUGCC", "note": "[G1C U28C G35A]", "self-cleavage": 0.02}, {"variant": "UGCGGAGCUCAAAACAGCGUGGCAAAUUGGCUGUGGCUAGACUGCC", "note": "[G1U A4G C13A G27U]", "self-cleavage": 0.04}, {"variant": "CGCAGAGCUCAACACAGCGUGGCAAAGUUGCUGUGGCUCGUCUGCC", "note": "[G1C G29U A39C A41U]", "self-cleavage": 0.07}, {"variant": "UGCCGAGCUCAACACAGCGUGGCAUAGUGGCUGUGGCUAGACUGCC", "note": "[G1U A4C A25U]", "self-cleavage": 0}, {"variant": "CGCAGACAAGAACACAGAGUGGCAAAGUCGCUGUGGCUAGACUGCU", "note": "[G1C G7C C8A U9A C10G C18A G29C C46U]", "self-cleavage": 0}, {"variant": "CGCACAGCUCAACACAGCGUGGCAAAGUGACUGUGGCUAGACUGCC", "note": "[G1C G5C G30A]", "self-cleavage": 0.03}, {"variant": "CGCAGAGCACAACACAGCCUGGCAAAGUGGCUGUUGCUAGACUGCC", "note": "[G1C U9A G19C G35U]", "self-cleavage": 0.01}, {"variant": "CGCAGAGCCCGACACAGCGUGGCAAAGUGGCUGUGGCUAGACUGCC", "note": "[G1C U9C A11G]", "self-cleavage": 0.02}, {"variant": "UGCAGUGCUCAACACAGCGUGGCUAAGUGGCUGUGGCUAGACUGCC", "note": "[G1U A6U A24U]", "self-cleavage": 0.51}, {"variant": "CGCAGAUCUCAAAACAGCGUGGCAAAGUGGCUGUGCCUAGACUGCC", "note": "[G1C G7U C13A G36C]", "self-cleavage": 0.03}, {"variant": "CGCAGAGCACUACACAGCGUGGGAAAUUGGCUGUGGCUAGACUGCC", "note": "[G1C U9A A11U C23G G27U]", "self-cleavage": 0}, {"variant": "CGCAGAUCUCAACCCAGCGUGGCAAAGUGGCUGUUGCUAAACUGCC", "note": "[G1C G7U A14C G35U G40A]", "self-cleavage": 0.02}, {"variant": "CGCAGAGCUCAACACAGCGUGGCAAAGUGUCUGCGGCUAGACUGCC", "note": "[G1C G30U U34C]", "self-cleavage": 0.01}, {"variant": "UGCUGAGCUCAACACAGACUCGCAAACUGGCUGUGGCUAGACUGCC", "note": "[G1U A4U C18A G19C G21C G27C]", "self-cleavage": 0.04}, {"variant": "CGCAGAGCGUAACACAGCAUGGCACAGUGGCUGUGGGUAGACUGCC", "note": "[G1C U9G C10U G19A A25C C37G]", "self-cleavage": 0.01}, {"variant": "CGCAGAUCUCAACACAGCGUGGCAAAGUGGCUGUGGCUAUACUGCC", "note": "[G1C G7U G40U]", "self-cleavage": 0.11}, {"variant": "UGCGGAGCUCAACACAGUGUGGCAAAGUGGCUGGGGCUAGACUGCC", "note": "[G1U A4G C18U U34G]", "self-cleavage": 0.12}, {"variant": "CGCAGAGCUCAACACAGCGUGGCAAAGUGGCUGUGCCAAGAAUGCC", "note": "[G1C G36C U38A C42A]", "self-cleavage": 0}, {"variant": "CGCAGAGCCCAACACAGCGUGGCAAAGUGGCUGUGUCUAGACUGCU", "note": "[G1C U9C G36U C46U]", "self-cleavage": 0.04}, {"variant": "UGCCGAGCUCAACACAGCGUGGCAUAGUGGCUGUGGCUAGACUGCA", "note": "[G1U A4C A25U C46A]", "self-cleavage": 0.03}, {"variant": "CGCAGAGCCCAACACAGCGUGGCAAAUUGACUGUGGCUAGACUGCC", "note": "[G1C U9C G27U G30A]", "self-cleavage": 0.02}, {"variant": "CGCAGACCUCAACACAGCGUGGAAAAGUGGCUUUGGCUAGACACCC", "note": "[G1C G7C C23A G33U U43A G44C]", "self-cleavage": 0.03}, {"variant": "CGCAGAGCUCAACACAGCUUGGCAAAGUGGGUUUGGCUAGACUGGC", "note": "[G1C G19U C31G G33U C45G]", "self-cleavage": 0.01}, {"variant": "CGCAUAGCUCAACACAGCGUGGCAAAGUGGCUGUGGUGAGACUGCC", "note": "[G1C G5U C37U U38G]", "self-cleavage": 0.01}, {"variant": "UGCAGCGCCCAACACAGCGUGGCAAACUGGCUGUGGCUAGGCUGCC", "note": "[G1U A6C U9C G27C A41G]", "self-cleavage": 0.05}, {"variant": "CGCAGAGCUCAACACAGCAUGCCAAAGAGGCUGUGGCUAGACUGCC", "note": "[G1C G19A G22C U28A]", "self-cleavage": 0.03}, {"variant": "CGCAGAGCGCAACACAGCGAGGCAUAGUGGCUAUAACUAGACUCCC", "note": "[G1C U9G U20A A25U G33A G35A G36A G44C]", "self-cleavage": 0}, {"variant": "UGCAGCGUUCAAGACAGCGUGGAAAAGUGGCUGUGGCUAGACUGCC", "note": "[G1U A6C C8U C13G C23A]", "self-cleavage": 0.34}, {"variant": "CGCAGAGCGCAACACAGCGUGGCAAAGUGGCUGUGGCUUGACUGCC", "note": "[G1C U9G A39U]", "self-cleavage": 0.01}, {"variant": "CGCAGAGCUCAACACACCGUGGCAAAGUGGAUGUGGCUAGACUGCC", "note": "[G1C G17C C31A]", "self-cleavage": 0.18}, {"variant": "CGCAGAGCUCAACACAGCGUGGCAAAGUGGCAAUGGCUAGACUGCC", "note": "[G1C U32A G33A]", "self-cleavage": 0.01}, {"variant": "CGCAUAGCUCAACACAGCGUGGCAAAGUGGCUGUGGCUAGACUACC", "note": "[G1C G5U G44A]", "self-cleavage": 0.01}, {"variant": "CGCAGAACUCAACAUAGCAUGGCAAAGUGGCUGUGGCUAGAUUGCC", "note": "[G1C G7A C15U G19A C42U]", "self-cleavage": 0.32}, {"variant": "CGCAGAGCUCAACACAGCGAGGCAAAGUGGCUGUGGUUAGACUGCC", "note": "[G1C U20A C37U]", "self-cleavage": 0.02}, {"variant": "CGCAGAGCGCAACACAGCGUGGCAAAAUGGCUGUGGCUAUACUGCC", "note": "[G1C U9G G27A G40U]", "self-cleavage": 0.01}, {"variant": "UGCAGCGCUCAACACAGCGUGGCAAAGUGGCUGGGGCUAGACUGCC", "note": "[G1U A6C U34G]", "self-cleavage": 0.02}, {"variant": "CGCAGAGCUCAACACAGCGGGGCAAACUGGCUGUGGCUAGACUGCG", "note": "[G1C U20G G27C C46G]", "self-cleavage": 0.28}, {"variant": "CGCAGAGCUCAACACAUCGUGGGGAAGUGCCUGUGGCUCGACAGUC", "note": "[G1C G17U C23G A24G G30C A39C U43A C45U]", "self-cleavage": 0}, {"variant": "CGCAGAGCUCAACACAGCGAGGCAAAGUGUCUGUGGCUAGACUGCC", "note": "[G1C U20A G30U]", "self-cleavage": 0.03}, {"variant": "CGCAUAGCUCAACACAGCGUGGCAAUGUGACUGUGGCUAGCCUGCC", "note": "[G1C G5U A26U G30A A41C]", "self-cleavage": 0}, {"variant": "CGCAGAGCUCAACACAGCGUGGCAAAGCGGCUGGGGCUAGACUGCC", "note": "[G1C U28C U34G]", "self-cleavage": 0.08}, {"variant": "CGCAGAGCUCAACACAGCGUGGCAAAGCGGCUGUGGCUACACAGCC", "note": "[G1C U28C G40C U43A]", "self-cleavage": 0}, {"variant": "CGCAGAGCUCAACACAGCGUAGUAGACUGGCUGUGGCUAUACUGCC", "note": "[G1C G21A C23U A25G G27C G40U]", "self-cleavage": 0.04}, {"variant": "CGCAGAGCUCAACACAGCGUGGCAAAGUAGCUGUGGCUAGACUGAC", "note": "[G1C G29A C45A]", "self-cleavage": 0.31}, {"variant": "UGCCGAGCACAACACAGCGCGGCAAAGUGGCUGUAGUCAGACCGCC", "note": "[G1U A4C U9A U20C G35A C37U U38C U43C]", "self-cleavage": 0.01}, {"variant": "CGCAGAGCUCAACACAGCGUGGCAAAGUUGCUGCGGCUAGACUGCC", "note": "[G1C G29U U34C]", "self-cleavage": 0.01}]}]}
